Experimental data taken from PMC4336329 (PLoS ONE, 2015).
In all, about 310,000 compounds went through this assay and about 14,000 (4.5%) showed an effect of 50% or more. Effects have a minus sign here. The list shows a part of the results.

molecular target: human ether-à-go-go-related gene (hERG) potassium channel (human, UniProt Q12809); assay: primary screen, population patch clamp on CHO cells stably expressing hERG
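Further: peak tail current of the secondary pulse compared with the same well before compound.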

Sequence of human ether-à-go-go-related gene (hERG) potassium channel (Q12809 whole entry, looked up): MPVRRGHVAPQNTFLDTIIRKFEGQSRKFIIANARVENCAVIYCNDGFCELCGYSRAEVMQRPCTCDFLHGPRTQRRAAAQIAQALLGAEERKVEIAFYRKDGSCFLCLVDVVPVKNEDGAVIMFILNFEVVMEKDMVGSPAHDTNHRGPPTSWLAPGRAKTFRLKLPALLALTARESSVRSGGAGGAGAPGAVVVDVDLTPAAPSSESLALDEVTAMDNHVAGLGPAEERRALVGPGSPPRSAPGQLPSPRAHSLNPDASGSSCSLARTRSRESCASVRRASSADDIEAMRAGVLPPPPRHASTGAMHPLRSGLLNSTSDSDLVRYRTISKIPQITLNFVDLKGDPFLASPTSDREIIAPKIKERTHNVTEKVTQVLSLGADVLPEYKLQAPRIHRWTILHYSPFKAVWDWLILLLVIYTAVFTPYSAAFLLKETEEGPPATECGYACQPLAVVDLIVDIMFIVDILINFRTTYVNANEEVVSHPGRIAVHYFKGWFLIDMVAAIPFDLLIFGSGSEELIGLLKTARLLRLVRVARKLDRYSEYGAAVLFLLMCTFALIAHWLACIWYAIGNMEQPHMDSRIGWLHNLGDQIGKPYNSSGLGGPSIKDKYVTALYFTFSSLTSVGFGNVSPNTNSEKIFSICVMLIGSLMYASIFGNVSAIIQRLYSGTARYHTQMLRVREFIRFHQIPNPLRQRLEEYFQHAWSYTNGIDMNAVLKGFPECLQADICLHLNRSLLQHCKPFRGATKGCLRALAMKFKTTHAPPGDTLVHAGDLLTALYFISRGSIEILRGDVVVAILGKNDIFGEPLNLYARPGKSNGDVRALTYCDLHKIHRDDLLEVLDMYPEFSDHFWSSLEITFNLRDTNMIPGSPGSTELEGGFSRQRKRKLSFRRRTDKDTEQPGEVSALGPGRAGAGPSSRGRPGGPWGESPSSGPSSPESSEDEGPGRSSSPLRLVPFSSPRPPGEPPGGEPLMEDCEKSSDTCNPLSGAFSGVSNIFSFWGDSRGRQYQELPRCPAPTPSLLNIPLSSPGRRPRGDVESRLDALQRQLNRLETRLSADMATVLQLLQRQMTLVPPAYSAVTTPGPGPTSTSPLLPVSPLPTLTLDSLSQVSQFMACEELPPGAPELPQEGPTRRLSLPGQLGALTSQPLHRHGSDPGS

Structure (SMILES)	hERG current change (%, negative = inhibition) at 10uM [%]
CCOc1c(O)ccc(C2NC(=O)N(C)C(C)=C2C(=O)OC)c1[N+](=O)[O-] (centres unmarked)	-0.872
CCCCN(C(=O)Nc1ccc(Cl)cc1)C1CCN(C(C)=O)CC1	-46
CSc1cccc(NC(=O)/C=C/c2ccccc2)c1	-7.06
C[C@H](NC(=O)c1nc[nH]c1C(=O)N[C@@H](C)C(=O)OC(C)(C)C)C(=O)OC(C)(C)C	-2.56
COc1ccc(NC(=O)C2=CN3CCS(=O)(=O)N=C3C=C2)c(OC)c1	12.9
O=C(COC(=O)CCc1nc2ccccc2s1)Nc1ccc(Cl)cn1	0.449
NC(=O)OCCCc1ccccc1	8.8
Cc1ccc(/C=N\NC(=O)CNC(=O)C23CC4CC(CC(C4)C2)C3)o1	-4.95
CN(C(=O)c1ccc(F)cc1)c1ccccc1C(=O)NCc1ccccc1	7.47
O=C(/C=C/c1ccc(-c2ccccc2[N+](=O)[O-])o1)c1ccc(Br)cc1	-3.4
CCOc1ccc(S(=O)(=O)Nc2cccc(C(=O)NCC3(N4CCCCC4)CCCCC3)c2)cc1	-71.6
COCCn1c(NCc2ccc(C)cc2)nc2c1c(=O)[nH]c(=O)n2C	3.68
O=C(OCC(=O)N1CCCC1=O)c1ccc(O)cc1O	7.98
O=C(/C=C/c1ccc([N+](=O)[O-])cc1)NCc1cccs1	-4.69
CSc1ccc(CCNS(=O)(=O)c2c(C)[nH]c(C)c2C(=O)N2CCCCC2)cc1	-15.2
c1ccc(C(c2ccccn2)c2ccccn2)cc1	-2.42
Cc1cc(N2CCN(c3ccc(C(F)(F)F)cc3[N+](=O)[O-])CC2)c2ccccc2n1	-88.9
O=C(COC(=O)c1cc([N+](=O)[O-])ccc1NCc1ccccc1)NCc1ccccc1Cl	10.1
COc1cccc(N2CC(=O)N(NC(=O)c3sc4nc(C)cc(C)c4c3N)CC2=O)c1	10.9
COc1ccc(OC)c(N=C(C)C2=C(O)COC2=O)c1	-5.35
NC(=O)c1ccccc1OCC(=O)NS(=O)(=O)c1ccccc1	13.3
COc1ccc(S(=O)(=O)N2CCN(C(=O)CN3C(=O)NC(C)(C)C3=O)CC2)cc1	4.49

Structure (SMILES)	hERG current change (%, negative = inhibition) at 10uM [%]
CCOC(=O)N1CCC(NC(=O)c2cc(C(=O)Nc3cccc(OC)c3)ccc2CO)CC1	14.4
CC(C)(C)NC(=S)NCc1ccc2c(c1)OCO2	-9.09
O=C(CCNS(=O)(=O)c1cccc2nsnc12)NCc1ccco1	-25.6
Nc1nonc1-n1nnc(C(=O)N/N=C/c2ccc(O)cc2)c1COc1ccc(F)cc1	22.4
O=C(COc1ccc2c(c1)oc(=O)c1ccccc12)NC(Cc1ccc(Cl)cc1)C(=O)O (centres unmarked)	6.24
COC(=O)Nc1ccc(S(=O)(=O)N2CCCC(C(=O)N3CCN(C)CC3)C2)cc1 (centres unmarked)	32.8
Cc1ccc(O)c(NC(=O)c2noc(C(C)C)c2[N+](=O)[O-])c1	13.3
COc1ccccc1C(=O)C1CCCN(Cc2cn[nH]c2C2CCCCC2)C1 (centres unmarked)	-31.5
COC(=O)Cc1[nH]n(-c2ccccc2)c(=O)c1C=Nc1ccc(C)cc1	-23.9
NNC(=O)c1ccc(COc2ccccc2)cc1	5.95
COc1ccc(C(=O)N[C@H](C(=O)OCc2nc3ccsc3c(=O)[nH]2)C(C)C)cc1	-29.3
COc1ccc(Cc2c([O-])[nH]c(=O)[nH]c2=O)c(OC)c1.[NH4+]	0.536
O=C(N/N=C\c1ccc(CNS(=O)(=O)c2ccc(Cl)cc2)o1)C(=O)Nc1ccc(Oc2ccccc2)cc1	4.53
C=C(C)Cn1c(N(CCO)Cc2ccccc2)nc2c1c(=O)[nH]c(=O)n2C	-2.53
O=C(Nc1ccc(Br)cn1)C1CCN(S(=O)(=O)c2cccs2)CC1	-15.4
Cc1ccccc1NC(=O)Cc1nc(COC(=O)CSc2ccccc2)cs1	-7.77
CC/C(=N\NC(=O)COc1ccc(Br)cc1)c1ccc(OC)c(OC)c1	15.7
CC(C)c1cccc(C(C)C)c1NC(=O)CN(C)C1CCS(=O)(=O)C1 (centres unmarked)	-30.8
Nc1ccc(-c2ccc(N)cc2C(F)(F)F)c(C(F)(F)F)c1	-7.82
COc1ccc(-c2cc(C(F)(F)F)n3ncc(C(=O)NCc4ccco4)c3n2)cc1	-7.53
Nc1ccc(S(=O)(=O)c2ccc(N)c(N)c2)cc1	17.5
Cc1nn(C)cc1C(C(=O)NC1CCCCC1)N(C(=O)Cn1nnc2ccccc21)c1ccc(F)cc1 (centres unmarked)	-1.32

Structure (SMILES)	hERG current change (%, negative = inhibition) at 10uM [%]
CCOC(=O)c1cccc(NC2c3ccccc3C(=O)N2Cc2ccco2)c1 (centres unmarked)	-10.9
O=c1c2ccccc2n(Cc2cccc(F)c2)c(=O)n1C1CCCC1	3.19
Cc1cccc(N(CC(=O)NC2CCCC2)C(=O)CS(=O)CC(=O)Nc2ccc3c(c2)OCO3)c1C (centres unmarked)	18
COc1cc(C(=O)NC(=S)N2C[C@H]3C[C@H](C2)c2cccc(=O)n2C3)cc(OC)c1OC	4.45
CCC(NC(=O)CN1CCN(C(=O)c2cccs2)CC1)c1ccc(C)cc1 (centres unmarked)	-37.2
OC(COCC1CC=CCC1)Cn1cnc2ccccc21 (centres unmarked)	-10.4
Cc1cc(NCc2ccccn2)n2ncc(-c3ccc(Cl)cc3)c2n1	5.16
CCOc1ccc(C(=O)N[C@H](C(=O)Nc2cccc(S(=O)(=O)N3CCCCC3)c2)C(C)C)cc1	0.656
Cl.c1ccc(C(OCCN2CCNCC2)c2ccccc2)cc1	-11.9
O=C(O)CN1CCN(CC(=O)O)CCN(CC(=O)O)CCN(CC(=O)O)CC1	7.18
CCCN1C2CCCC1CC(NC(=O)c1ccc(F)cc1)C2 (centres unmarked)	-55.3
COc1ccc2nc(C)cc(N/N=C/c3ccc(F)cc3)c2c1	0.337
CN(C)CCCN(C(=O)COc1ccc(Cl)cc1)c1nc2c(F)cccc2s1.Cl	-67.1
Cc1cc(Br)ccc1SCC(=O)OCC(=O)NC1CC1	22.5
Cc1cc(OCCCCOc2ccc(S(N)(=O)=O)c(C)c2)ccc1S(N)(=O)=O	13.4
Cc1noc(C)c1S(=O)(=O)NCC(=O)O	10.6
COc1cc(C(=O)Nc2cnc(NC(=O)C(C)C)cc2C)cc(OC)c1OC	15.4
Cc1cc(NC(=O)COC(=O)[C@@H](NS(=O)(=O)c2ccccc2)C(C)C)no1	-7.67
COC(=O)CCCC(=O)N1CCC(CO)(CCc2ccccc2)CC1	-23.8
O=C(Nc1c2c(nn1-c1ccc(F)cc1)CS(=O)C2)c1ccc(S(=O)(=O)N2CCOCC2)cc1 (centres unmarked)	21.9
CC(=O)Nc1ccc(/C=N/NS(=O)(=O)c2cc(C)ccc2C)cc1	-44.6
O=c1cc(-c2ccccc2)n(S(=O)(=O)c2ccccc2)o1	6.78

Structure (SMILES)	hERG current change (%, negative = inhibition) at 10uM [%]
COc1cc(NC(=O)CN(C)Cc2ccc(OC(F)F)cc2)c(C)cc1[N+](=O)[O-]	-28.8
Cc1cc(NC(=O)COc2coc(CN3CCN(c4ccc(F)cc4)CC3)cc2=O)no1	-36.5
CC1(C)CCC(=O)N2CC[C@H]3C[C@H](OC(=O)Nc4ccc5c(c4)OCO5)C[C@@H]1[C@H]32	-0.41
COc1ccc(C(=O)Nc2nc(C)cc(C)n2)cc1[N+](=O)[O-]	-7.34
Cc1cscc1NC(=O)/C=C/C(=O)O	2.91
CCCCCOc1ccc(C(=O)NC(CCC)C(=O)O)cc1 (centres unmarked)	-1.3
O=C(N/N=C/c1ccco1)C1CC1(c1ccccc1)c1ccccc1 (centres unmarked)	-2.06
CNC(=O)c1ccccc1NC(=O)C1CC(=O)N(C(C)C)C1 (centres unmarked)	13.8
COC(=O)c1ccc2c(=O)[nH]c(CCl)nc2c1	10.7
O=C(COc1ccc2c(c1)CCC2)N1CCN(c2ccc(F)cc2)CC1	-2.53
Brc1ccc(-c2cnc(-c3cccs3)o2)cc1	-3
Cc1ccc(C(=O)OCC(=O)Nc2ncc(Cl)cc2Cl)cc1NC(=O)c1ccco1	-48.7
CCc1cc2c(=O)[nH]c(CC(N)=O)nc2s1	13.2
COc1cc(OC)c(CN2CCCCCCC2)cc1Br	-22.4
COC(=O)C(NC(=O)CNS(=O)(=O)c1ccc(Br)cc1)c1ccccc1 (centres unmarked)	-4.73
O=C(/C=C/c1ccccc1Cl)NC(=S)Nc1ccccc1C(=O)NC1CCCCC1	8.87
COc1ccc2c(c1)c(N=O)c(O)n2C	13.8
Fc1ccc(-n2nnc(-c3ccccc3)n2)cc1	10.8
CC(=O)NC(c1cccs1)c1cc([N+](=O)[O-])c2cccnc2c1O (centres unmarked)	24.6
CC(C)c1ccc(NC(=S)NNC(=O)C2CC2)cc1	15
